Data as given in PubChem BioAssay AID463173 (ICCB-Longwood Screening Facility, Harvard Medical School, 2010).
Hit rate of the full screen: of about 52,000 compounds, about 1,700 (3.3%) were called active. Rule as the data show it: active = survival mostly below about 52% (no sharp cut-off); inactive = mostly above about 56%. Some of the results follow.

Each compound was assayed on Wild type (assay: growth inhibition of S. aureus wild type versus tarO mutant, primary screen, teichoic acid synthesis inhibitors, RN4220, OD600 (AID 463173)). Conditions: S. aureus RN4220 wild type/DeltatarO growth, OD600, 18 h, stronger effect = lower value, screened at 18.75 µg/mL (by protocol).
For `CCc1ccc(-c2nc3c(c(SCc4ccc(F)cc4)n2)Cc2c(CO)cnc(C)c2O3)cc1`, the survival was inactive: 85%. With `O=C(CN1CCCCC1)N/N=C/c1ccc(/C=N/NC(=O)CN2CCCCC2)cc1` the survival was inactive: 79%. `COc1ccc(Br)cc1CN1CCN(C(=O)c2cccc(OC)c2OC)CC1` was tested, and the survival was inactive: 111%. With `CC1=C(C(=O)NCCc2ccc(Cl)cc2)C2(CCCCC2)OC1=O` the survival was inactive: 73%. With `COc1cccc(CNC(=O)Cn2ncc3c4ccccc4n(C)c3c2=O)c1` the survival was inactive: 87%. For `COCCNC(=O)CCCn1c(SCC(=O)Nc2cccc(C)c2)nc2c(sc3ccccc32)c1=O`, the survival was inactive: 86%. `Cc1cccc(NC(=O)CSc2nc3c(oc4ccccc43)c(=O)n2C(C)C)c1` was tested, and the survival was inactive: 68%. In the case of `COc1ccc(N2CCN(C(c3ccccc3)c3nnc(-c4ccccc4Cl)o3)CC2)cc1` (centres undefined), the survival is reported as inactive: 22%. With `COc1ccc(C(=O)c2oc3ccccc3c2NC(=O)COc2c(C)cc(C)cc2C)cc1` the survival was inactive: 68%. With `O=C(CN1CCOCC1)Nc1c(-c2ccccc2)c2cc(Br)ccc2[nH]c1=O` the survival was inactive: 119%. `COc1cccc(CNC(=O)c2c(O)nc3ccccn3c2=O)c1` was tested, and the survival was inactive: 55%. With `CCOc1ccc(N2CC(c3nc4ccccc4n3CC(C)C)CC2=O)cc1` (centres undefined) the survival was inactive: 83%. `COc1ccc(Cc2nnc(SCC(N)=O)o2)cc1` was tested, and the survival was inactive: 111%. With `NC1=NN(c2cccc(C(=O)O)c2)C(=O)C1` the survival was inactive: 94%. In the case of `Cc1n[nH]c(=S)n1CC1CCCO1` (centres undefined), the survival is reported as inactive: 107%. In the case of `COc1cc(-c2noc(-c3ccc(NCCc4ccccc4)c([N+](=O)[O-])c3)n2)cc(OC)c1OC`, the survival is reported as inactive: 84%. In the case of `Cc1ccc(C)c(N2CCN(C(=O)c3ccc4c(Cl)c5c(nc4c3)CCCC5)CC2)c1`, the survival is reported as inactive: 90%. In the case of `COc1cc(NC(=O)CCNS(=O)(=O)c2ccc3c(c2)CCN3C(=O)C2CC2)cc(OC)c1`, the survival is reported as inactive: 82%. In the case of `COCC(=O)N1CCc2cc(OC)c(OC)cc2C1COc1ccc2c(C)cc(=O)oc2c1` (centres undefined), the survival is reported as inactive: 68%. `O=C(Nc1nc2nc(-c3ccccc3)cc(=O)n2[nH]1)c1ccc(F)cc1` was tested, and the survival was inactive: 92%. `N#Cc1ccccc1Cn1nnc2c(=O)[nH]c(C3CCCN(S(=O)(=O)c4ccc(F)cc4)C3)nc21` (centres undefined) was tested, and the survival was inactive: 111%. `O=C(Nc1sc2c(c1C(=O)NCc1ccccc1)CCCC2)c1cc(=O)c2cc(Cl)ccc2o1` was tested, and the survival was inactive: 81%. `CCc1ccccc1N1CC(c2nc3ccccc3n2Cc2cccc(C)c2)CC1=O` (centres undefined) was tested, and the survival was inactive: 66%. `CCOc1ccccc1N1CC(c2nc3ccccc3n2CCCOc2ccccc2OC)CC1=O` (centres undefined) was tested, and the survival was inactive: 79%. In the case of `Cc1ccc(N2C(=O)CC(N3CCc4ccccc43)C2=O)cc1Cl` (centres undefined), the survival is reported as inactive: 104%. In the case of `CCOc1ccc(S(=O)(=O)NCCc2sc(-c3ccc(C)cc3)nc2C)cc1`, the survival is reported as inactive: 73%. In the case of `COc1ccc(CNc2ccc(C)c(C)c2)c(OC)c1OC`, the survival is reported as inactive: 131%. In the case of `CC1CCc2nn(CC(=O)Nc3cccc(C(F)(F)F)c3)c(=O)cc2C1` (centres undefined), the survival is reported as inactive: 73%. With `COc1cc(NC(=O)Cn2c(=O)n(C(C)C)c(=O)c3oc4ccccc4c32)cc(OC)c1` the survival was inactive: 76%. With `O=C(NCc1ccccc1)C1CCC(CNS(=O)(=O)c2ccc(Br)s2)CC1` (centres undefined) the survival was inactive: 73%. `Cn1c(C(=O)NCc2ccc3c(c2)OCO3)cc2sccc21` was tested, and the survival was inactive: 113%. `O=C(Nc1cccnc1Cl)c1cc(-c2ccc(Cl)cc2)on1` was tested, and the survival was inactive: 83%. For `COc1cccc(COC(=O)c2ccc(-c3nnn(Cc4ccccc4)n3)cc2)c1`, the survival was inactive: 118%. `CC1CCN(S(=O)(=O)c2cc(C(=O)NCc3ccc(F)cc3)n(C)c2)CC1` was tested, and the survival was inactive: 66%. `CCc1ccc(NC(=O)Cn2nnc(C(=O)NCc3ccco3)c2N)cc1` was tested, and the survival was inactive: 94%. In the case of `Cc1ccccc1C(=O)Nc1nnc(SCc2cc(=O)c3c(C)ccc(C)c3[nH]2)s1`, the survival is reported as inactive: 135%. In the case of `COc1ccc(CN(C(=O)Nc2ccc(C)c(F)c2)C2CCN(C(C)=O)CC2)cc1`, the survival is reported as inactive: 69%. With `CC(C)c1ccc(C(=O)Nc2cccc3cccnc23)cc1` the survival was active: -3%. With `O=C1C(c2ccc(F)cc2)N(CCc2ccccc2)C(=O)CN1C1CCCCC1` (centres undefined) the survival was inactive: 105%. `CNC(=O)c1cc2n(n1)CCCN(Cc1ccc(F)cc1)C2=O` was tested, and the survival was inactive: 45%. `CC(C)(C)C(=O)NC1CCN(CC(=O)N2CCCCCC2)CC1` was tested, and the survival was inactive: 119%. With `CSc1ccc(CCNC(=O)c2cc3n(n2)CCCN(Cc2ccc(C)cc2)C3=O)cc1` the survival was inactive: 66%. In the case of `CC1(C)OC(=O)C(=Cc2ccc(-c3ccc(S(N)(=O)=O)cc3)o2)C(=O)O1`, the survival is reported as inactive: 108%. For `CCOc1ccc(CCNS(=O)(=O)c2c(C)nc3sc(C)cn3c2=O)cc1OCC`, the survival was inactive: 93%. With `CC(=O)c1ccc(NC(=O)CCc2c(C)nn(-c3ccc4nncn4n3)c2C)cc1` the survival was inactive: 119%. `CC(C)n1c(=S)[nH]c2c1c(=O)[nH]c(=O)n2C` was tested, and the survival was inactive: 94%. In the case of `Cc1ccc(NC(=O)CCS(=O)(=O)c2ccc3nc(C)sc3c2)cc1`, the survival is reported as inactive: 84%. For `CCC1CN(C(=O)N2CCC(C(=O)NCCOC)CC2)c2ccccc2O1` (centres undefined), the survival was inactive: 85%. In the case of `CC(C)c1ccc(NS(=O)(=O)c2ccc3[nH]c(=O)ccc3c2)cc1`, the survival is reported as inactive: 89%. In the case of `COC(=O)c1ccc(Cn2nc(-c3ccc(C)c(C)c3)ccc2=O)cc1`, the survival is reported as inactive: 99%. `CCc1ccc(NC(=O)C2CCCN(S(=O)(=O)c3c(C)[nH]c(=O)[nH]c3=O)C2)cc1` (centres undefined) was tested, and the survival was inactive: 84%. In the case of `CCOC(=O)Cc1nnc2c(Nc3ccccc3OC)nc3nonc3n12`, the survival is reported as inactive: 120%. In the case of `CCSc1nnc(-c2ccc(S(=O)(=O)N3CCOCC3)cc2)n1C`, the survival is reported as inactive: 107%. `O=C(Nc1noc2ccccc12)c1cccc(F)c1` was tested, and the survival was inactive: 102%. With `CC(C)c1ccc(NC(=O)C2CCCN(S(=O)(=O)c3cccc4nonc34)C2)cc1` (centres undefined) the survival was inactive: 94%. In the case of `O=C(CCS(=O)(=O)c1cc2c3c(c1)CCN3C(=O)CC2)NCc1ccc(F)cc1`, the survival is reported as inactive: 77%. `COCCc1nn2c(=O)cc(COC(=O)COc3ccccc3C)nc2s1` was tested, and the survival was inactive: 80%. `COc1ccc(Cl)cc1Nc1ncnc2c1nc1n2CCCC1` was tested, and the survival was inactive: 63%. For `CCC(=O)Nc1ccc2nc(SCC(=O)N3CCc4ccccc43)sc2c1`, the survival was inactive: 88%. In the case of `CCOC(=O)c1ccccc1NC1(c2ccc(OC)cc2)C(=O)c2ccccc2C1=O`, the survival is reported as inactive: 64%. For `Cc1cc(C)c(NC(=O)CSc2nnc3[nH]c(=O)cc(C)n23)c(C)c1`, the survival was inactive: 92%. `CCNc1nc(NC(C)C)nc(NC(N)NOC)n1` (centres undefined) was tested, and the survival was inactive: 103%. `O=c1c2ccccc2n2c(-c3ccc(F)c(F)c3)nnc2n1CCc1ccccc1` was tested, and the survival was inactive: 88%. For `COC(=O)c1ccc(C2c3c(oc4cc(C)c(C)cc4c3=O)C(=O)N2c2ccccn2)cc1` (centres undefined), the survival was inactive: 66%. In the case of `C/C(=N\OCCN1CCCCC1)C1COc2ccccc2O1` (centres undefined), the survival is reported as inactive: 96%. In the case of `CCOC(=O)c1c(S(=O)(=O)N2CCCC(C(=O)Nc3ccc(C)cc3C)C2)c(C)n(CC)c1C` (centres undefined), the survival is reported as inactive: 78%. `CCOC(=O)C1CCN(C(=O)CSc2c3c(nc4ccc(Cl)cc24)CCCC3)CC1` was tested, and the survival was inactive: 56%. In the case of `CC(=O)Nc1ccc(C(=O)CSc2nnc3cc(C)c4ccccc4n23)cc1`, the survival is reported as inactive: 88%. In the case of `CCOc1ccc(S(=O)(=O)Nc2ccc3c(c2)c(C(C)=O)c(C)n3S(=O)(=O)c2ccc(OCC)cc2)cc1`, the survival is reported as inactive: 95%. In the case of `Cc1cc(C)c(NC(=O)Cn2c(=O)n(CCC(=O)NCc3ccc4c(c3)OCO4)c(=O)c3ccccc32)c(C)c1`, the survival is reported as inactive: 93%. In the case of `O=C(NCc1ccc(Cl)cc1)C(=O)NCC(c1ccco1)S(=O)(=O)c1cccs1` (centres undefined), the survival is reported as inactive: 76%. `Cc1ccc(CNC(=O)c2ccc(-c3nc(CN4CCc5ccccc54)c(C)o3)cc2)cc1` was tested, and the survival was inactive: 72%. `CCCCNC(=O)c1ccc2c(=O)n(-c3ccccc3)c(=O)[nH]c2c1` was tested, and the survival was inactive: 66%. `COc1ccc(-c2cc(C(=O)NCC(=O)O)c(C)o2)cc1OC` was tested, and the survival was inactive: 100%. With `COc1ccc(CCC(=O)NC2CC(=O)N(c3ccc(C)c(C)c3)C2)cc1` (centres undefined) the survival was inactive: 74%. For `Cc1ccc(NC(=O)c2sc3nc(-c4ccc(F)cc4)cn3c2C)c(C)c1`, the survival was inactive: 71%. `CCOc1ccc2[nH]c(=O)c(CN(C(=O)Nc3ccccc3)C3CC3)cc2c1` was tested, and the survival was inactive: 117%. In the case of `CCc1ccccc1Nc1sc(C(=O)c2ccccc2)c(N)c1S(=O)(=O)c1ccccc1`, the survival is reported as inactive: 127%. `CN(C)C(=O)c1ccc(S(=O)(=O)NCc2ccc(Cl)cc2)s1` was tested, and the survival was inactive: 123%. For `CCCCN(CC)C(=O)CSc1nc2c(sc3ccccc32)c(=O)n1CCc1ccccc1`, the survival was inactive: 123%. For `CCN(CCCNC(=O)Cn1ncc2c([nH]c3ccccc32)c1=O)c1cccc(C)c1`, the survival was inactive: 70%. For `COC(=O)c1scc(-c2ccc(C)cc2)c1S(=O)(=O)N1CCN(c2cccc(Cl)c2)CC1`, the survival was inactive: 67%. `CCc1ccccc1NC(=O)Cn1c(=O)n(-c2ccc(C)cc2)c(=O)c2cc(OC)c(OC)cc21` was tested, and the survival was inactive: 90%. For `CC(=O)N1CCc2c(sc3c2c(=O)n(-c2ccccc2C)c(=O)n3CC(=O)Nc2ccccc2)C1`, the survival was inactive: 69%. `Cn1c(=O)sc2cc(NS(=O)(=O)c3ccc(C(C)(C)C)cc3)ccc21` was tested, and the survival was inactive: 73%. `Cc1ccc(S(=O)(=O)c2nc(-c3cccs3)oc2N2CCC(C)CC2)cc1` was tested, and the survival was active: -10%. `Cc1c(C(=O)Nc2c(F)cccc2F)sc2ncn(Cc3ccccc3F)c(=O)c12` was tested, and the survival was inactive: 71%. In the case of `COc1ccc(C(=O)NCc2cn3ccc(C)cc3n2)cc1`, the survival is reported as inactive: 86%. `CN(Cc1ccccc1)c1nc2c(S(=O)(=O)c3cccc(Cl)c3)nnn2c2ccsc12` was tested, and the survival was inactive: 88%.
